Reference: patent US20250304717A1, “CAMPTOTHECIN DERIVATIVE AND LIGAND-DRUG CONJUGATE” (HAINAN SIMCERE ZAIMING PHARMACEUTICAL CO., LTD., priority 2022, published 2025)

How the values were obtained:
Format in all cases: cell-based, human
OVCAR3 cells = experiment: Anti-tumor cell proliferation activity of anti-CDH6-ADC, OVCAR3; details: 5 days
Text: (§1) Cell and material: The human ovarian cancer cell line OVCAR3 (CDH6 high-expression cell strain) was purchased from ATCC, the human ovarian teratoma cell line PA-1 was purchased from ATCC, bovine serum, 1640 medium (Gibco #A10491-01), MEM medium (Gibco #11095-080), MEM NEAA (Gibco #11140-050), sodium pyruvate (Gibco #11360-070), penicillin-streptomycin, and 0.25% Trypsin-EDTA (Gibco #25200-056) were purchased from Gibco, bovine insulin was purchased from Solarbio, 96 well plates were purchased from Corning (U.S.), and Cell-Titer Glo reagent was purchased from Promega (U.S.).
(§2) Cell culture: OVCAR3 cells were cultured with a 1640 medium containing 20% fetal bovine serum +2 μg/mL bovine insulin+1% penicillin-streptomycin at 37° C. with 5% CO2, and PA-1 cells were cultured with an MEM medium containing 10% fetal bovine serum+1% MEM NEAA+1% sodium pyruvate+1% penicillin-streptomycin at 37° C. with 5% CO2. Cells at logarithmic growth phase were available for the experiment.
(§3) Cell proliferation activity test: The Cell-Titer Glo reagent was used to test ADC for inhibitory activity on proliferation of both OVCAR3 and PA-1 cell strains. OVCAR3 and PA-1 cells were digested and pipetted in cell culture flasks, and resuspended using the corresponding fresh medium. The cell density was adjusted. OVCAR3 cells (5000 per well) and PA-1 (800 per well) were seeded on 96-well plates and incubated at 37° C. with 5% CO2 for 24 h. After the ADC solution to be detected was added (the ADC was diluted with the medium for the corresponding cells described above, the ADC concentration was adjusted to 100 nM, then the medium was continuously and serially diluted 3-fold to give a total of 8 concentrations, and 10 μL of the prepared ADC solution was transferred to the 96-well plate so that the final concentration was 0-10 nM), the mixture was incubated at 37° C. with 5% CO2. OVCAR3 cells and PA-1 cells were cultured for 5 days. The Cell-Titer Glo reagent was added and the cell activity was measured.
(§4) A negative control group and a positive control group were respectively used as Bottom and Top. The negative control group was not added with cells, only added with the culture medium in the same volume, and other operations were consistent with those of the experimental group. The positive control group was not added with the test drug, and other operations were consistent with those of the experimental group.
(§5) Data analysis: % Inhibition was calculated, and compound IC50 was fitted.
(§6) Signal referred to the signal value of the experimental group, Bottom referred to the average signal value of the negative control group, and Top referred to the average signal value of the positive control group.

PA-1 cells = experiment: Anti-tumor cell proliferation activity of anti-CDH6-ADC, PA-1; details: 5 days
Text: as §1, §2, §3, §4, §5, §6

ROR1 negative cells MCF7 = experiment: Bystander effect test of anti-ROR1-ADC; details: for Maximum inhibition rate (%): supernatant from hROR1-MCF7, MCF7 negative cell; for IC50: supernatant from hROR1-MCF7 incubated with ADC 5 days, then 5 days on MCF7, read-out: IC50 (negative cell)
Description: Cell culture: hROR1-MCF7 cells and MCF7 cells were cultured with a DMEM medium containing 10% fetal bovine serum+1% penicillin-streptomycin at 37° C. with 5% CO2. Cells at logarithmic growth phase were available for the experiment.
Bystander effect detection: The supernatant after incubation of the ADC to be detected with ROR1 positive cells hROR1-MCF7 was transferred to ROR1 negative cells MCF7 for further incubation, and the Cell-Titer Glo reagent was used for detecting the influence of the supernatant on the cell proliferation activity of MCF7, so that the bystander effect of the ADC was reflected. hROR1-MCF7 cells were digested and pipetted in cell culture flasks, and resuspended using the corresponding fresh medium. The cell density was adjusted. The cells were seeded on a 96-well plate at 20000 cells/180 L/well and incubated at 37° C. with 5% CO2 overnight. The ADC concentration was diluted to 5000 nM with a complete medium and subjected to 3-fold gradient dilution to give a total of 8 concentration gradients, and then 20 μL of an ADC diluted solution was transferred to the 96-well plate, i.e., the initial concentration of the ADC was 500 nM. The 96-well plate was incubated at 37° C. with 5% CO2 for 5 days. 150 μL of the supernatant in the hROR1-MCF7 cell culture plate was pipetted and transferred to the MCF7 cell plate (1500 cells/50 μL/well) seeded one day in advance, and incubated at 37° C. with 5% CO2 for 5 days. The Cell-Titer Glo reagent was added and the cell activity was measured.
as §4
(§7) % Inhibition was calculated and fitted to give compound IC50.
as §6

hROR1-MCF7 cells = experiment: Anti-tumor cell proliferation activity of anti-ROR1-ADC, hROR1-MCF7; details: 5 days
Description: Cell and material: The human breast cancer cell line hROR1-MCF7 was constructed by Simcere Zaiming, DMEM medium (Gibco #11995-065), penicillin-streptomycin (Gibco #15140-122), and 0.25% Trypsin-EDTA (Gibco #25200-056) were purchased from Gibco (U.S.), 96 well plates (Greiner Bio-one #655098) was purchased from Corning (U.S.), and Cell-Titer Glo reagent (Promega #G7568) was purchased from Promega (U.S.).
Cell culture: hROR1-MCF7 cells were cultured with a DMEM medium containing 10% fetal bovine serum+1% penicillin-streptomycin at 37° C. with 5% CO2. Cells at logarithmic growth phase were available for the experiment.
Cell proliferation activity test: The Cell-Titer Glo reagent was used to test ADC for inhibitory activity on proliferation of hROR1-MCF7 cell strains. hROR1-MCF7 cells were digested and pipetted in cell culture flasks, and resuspended using the corresponding fresh medium. The cell density was adjusted. hROR1-MCF7 cells were seeded on a 96-well plate at 1700 cells/90 μL/well and incubated at 37° C. with 5% CO2 overnight. The ADC concentration was diluted to 500 nM with a complete medium and subjected to 4-fold gradient dilution to give a total of 9 concentration gradients, and then 10 μL of an ADC diluted solution was transferred to the 96-well plate, i.e., the initial final concentration of the ADC was 50 nM. The 96-well plate was incubated at 37° C. with 5% CO2 for 5 days. The Cell-Titer Glo reagent was added and the cell activity was measured.
as §4, §7, §6

B1: ADC-L1-14-P1-3 (conjugate)
heavy: EVQLVQSGAEVKKPGASVKVSCKASGYTFTRNFMHWVRQAPGQGLEWMGWIYPGDGETEYAQKFQGRVTITADTSTSTAYMELSSLRSEDTAVYYCARGVYGGFAGGYFDFWGQGTLVTVSSASTKGPSVFPLAPSSKSTSGGTAALGCLVKDYFPEPVTVSWNSGALTSGVHTFPAVLQSSGLYSLSSVVTVPSSSLGTQTYICNVNHKPSNTKVDKRV[human IgG1 Fc omitted]
light: DIQMTQSPSSLSASVGDRVTITCKASQNIYKNLAWYQQKPGKAPKLLIYDANTLQTGVPSRFSGSGSGSDFTLTISSLQPEDFATYFCQQYYSGWAFGQGTKVEIKRTVAAPSVFIFPPSDEQLKSGTASVVCLLNNFYPREAKVQWKVDNALQSGNSQESVTEQDSKDSTYSLSSTLTLSKADYEKHKVYACEVTHQGLSSPVTKSFNRGEC
IC50 (OVCAR3 cells): 0.012 nM | IC50 (PA-1 cells): 0.063 nM

B2: ADC-L1-19-8 (conjugate)
heavy: QVQLQESGPGLVKPSQTLSLTCTVSGYAFTAYNIHWVRQAPGQGLEWMGSFDPYDGGSSYNQKFKDRLTISKDTSKNQVVLTMTNMDPVDTATYYCARGWYYFDYWGHGTLVTVSS[human IgG1 constant region omitted]
light: DIVMTQTPLSLPVTPGEPASISCRASKSISKYLAWYQQKPGQAPRLLIYSGSTLQSGIPPRFSGSGYGTDFTLTINNIESEDAAYYFCQQHDESPYTFGEGTKVEIKRTVAAPSVFIFPPSDEQLKSGTASVVCLLNNFYPREAKVQWKVDNALQSGNSQESVTEQDSKDSTYSLSSTLTLSKADYEKHKVYACEVTHQGLSSPVTKSFNRGEC
Maximum inhibition rate (%) (ROR1 negative cells MCF7): 56.83% | IC50 (ROR1 negative cells MCF7): 0.03 nM | IC50 (hROR1-MCF7 cells): 0.18 nM | hROR1-MCF7 Maximum inhibition rate (%) (hROR1-MCF7 cells): 39.88%

B3: ADC-L1-19-P1-8 (conjugate)
heavy: QVQLQESGPGLVKPSQTLSLTCTVSGYAFTAYNIHWVRQAPGQGLEWMGSFDPYDGGSSYNQKFKDRLTISKDTSKNQVVLTMTNMDPVDTATYYCARGWYYFDYWGHGTLVTVSS[human IgG1 constant region omitted]
light: DIVMTQTPLSLPVTPGEPASISCRASKSISKYLAWYQQKPGQAPRLLIYSGSTLQSGIPPRFSGSGYGTDFTLTINNIESEDAAYYFCQQHDESPYTFGEGTKVEIKRTVAAPSVFIFPPSDEQLKSGTASVVCLLNNFYPREAKVQWKVDNALQSGNSQESVTEQDSKDSTYSLSSTLTLSKADYEKHKVYACEVTHQGLSSPVTKSFNRGEC
Maximum inhibition rate (%) (ROR1 negative cells MCF7): 53.62% | IC50 (ROR1 negative cells MCF7): 0.05 nM | IC50 (hROR1-MCF7 cells): 0.1 nM | hROR1-MCF7 Maximum inhibition rate (%) (hROR1-MCF7 cells): 38.61%

B4: ADC-L1-19-10 (conjugate)
heavy: QVQLRESGPGLVKPSETLSLTCTVSGFDISSYYMSWVRQPPGKGLEWIGAIGISGNAYYASWAKSRVTISRDTSKNQFSLKLSSVTAADTAVYYCARDHPTYGMDLWGPGTLVTVSS[human IgG1 constant region omitted]
light: SYELTQPPSVSVAPGKTARITCEGNNIGSKAVHWYQQKPGQAPVLVIYDDDERPSGIPERFSGSNSGNTATLTISRVEAGDEADYYCQVWDSSAYVFGGGTKLTVLRTVAAPSVFIFPPSDEQLKSGTASVVCLLNNFYPREAKVQWKVDNALQSGNSQESVTEQDSKDSTYSLSSTLTLSKADYEKHKVYACEVTHQGLSSPVTKSFNRGEC
Maximum inhibition rate (%) (ROR1 negative cells MCF7): 61.37% | IC50 (ROR1 negative cells MCF7): 0.02 nM | IC50 (hROR1-MCF7 cells): 0.04 nM | hROR1-MCF7 Maximum inhibition rate (%) (hROR1-MCF7 cells): 37.45%

B5: ADC-L1-19-P1-10 (conjugate)
heavy: QVQLRESGPGLVKPSETLSLTCTVSGFDISSYYMSWVRQPPGKGLEWIGAIGISGNAYYASWAKSRVTISRDTSKNQFSLKLSSVTAADTAVYYCARDHPTYGMDLWGPGTLVTVSS[human IgG1 constant region omitted]
light: SYELTQPPSVSVAPGKTARITCEGNNIGSKAVHWYQQKPGQAPVLVIYDDDERPSGIPERFSGSNSGNTATLTISRVEAGDEADYYCQVWDSSAYVFGGGTKLTVLRTVAAPSVFIFPPSDEQLKSGTASVVCLLNNFYPREAKVQWKVDNALQSGNSQESVTEQDSKDSTYSLSSTLTLSKADYEKHKVYACEVTHQGLSSPVTKSFNRGEC
Maximum inhibition rate (%) (ROR1 negative cells MCF7): 57.86% | IC50 (ROR1 negative cells MCF7): 0.03 nM | IC50 (hROR1-MCF7 cells): 0.03 nM | hROR1-MCF7 Maximum inhibition rate (%) (hROR1-MCF7 cells): 44.77%

B6: ADC-L1-19-9 (conjugate)
heavy: EVQLLESGGGLVQPGGSLRLSCAASGFTFSNYAMSWVRQAPGKGLEWVSSISHNSGSTYYADSVKGRFTISRDNSKNTLYLQMNSLRAEDTAVYYCAKFISARKSLGRSYSNGMDVWGQGTLVTVSS[human IgG1 constant region omitted]
light: QSVLTQPPSASGTPGQRVTISCTGSSSNIGSNDVTWYQQLPGTAPKLLIYADSKRPSGVPDRFSGSKSGTSASLAISGLRSEDEADYYCGTWDYSLSGYVFGGGTKLTVLRTVAAPSVFIFPPSDEQLKSGTASVVCLLNNFYPREAKVQWKVDNALQSGNSQESVTEQDSKDSTYSLSSTLTLSKADYEKHKVYACEVTHQGLSSPVTKSFNRGEC
Maximum inhibition rate (%) (ROR1 negative cells MCF7): 57.76% | IC50 (ROR1 negative cells MCF7): 0.1 nM | IC50 (hROR1-MCF7 cells): 0.31 nM | hROR1-MCF7 Maximum inhibition rate (%) (hROR1-MCF7 cells): 42.34%

B7: ADC-L1-19-P1-9 (conjugate)
heavy: EVQLLESGGGLVQPGGSLRLSCAASGFTFSNYAMSWVRQAPGKGLEWVSSISHNSGSTYYADSVKGRFTISRDNSKNTLYLQMNSLRAEDTAVYYCAKFISARKSLGRSYSNGMDVWGQGTLVTVSS[human IgG1 constant region omitted]
light: QSVLTQPPSASGTPGQRVTISCTGSSSNIGSNDVTWYQQLPGTAPKLLIYADSKRPSGVPDRFSGSKSGTSASLAISGLRSEDEADYYCGTWDYSLSGYVFGGGTKLTVLRTVAAPSVFIFPPSDEQLKSGTASVVCLLNNFYPREAKVQWKVDNALQSGNSQESVTEQDSKDSTYSLSSTLTLSKADYEKHKVYACEVTHQGLSSPVTKSFNRGEC
Maximum inhibition rate (%) (ROR1 negative cells MCF7): 53.70% | IC50 (ROR1 negative cells MCF7): 0.07 nM | IC50 (hROR1-MCF7 cells): 0.22 nM | hROR1-MCF7 Maximum inhibition rate (%) (hROR1-MCF7 cells): 44.73%
